According to the supplement of paper PMC12889115:
The other results are listed elsewhere or left out. No stated cut-off is given here; in the data, active = 25% or less and inactive = the rest. Single values are uncertain, as repeats are few or missing.

Tested on: Salmonella enterica serovar Typhimurium SL1344
Experiment: intramacrophage bacterial GFP load (SAFIRE), percent of DMSO control (% of DMSO); higher = more intracellular bacteria (less inhibition)
Conditions: 25 µM; system: infected RAW 264.7 macrophages
Experimental: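 Secondary screen of the 553 primary hits at 25 µM. (i) S. Typhimurium SL1344 grown in Mueller-Hinton broth with 0.5 µg/mL polymyxin B, OD600 read after 18 h. (ii) SAFIRE assay: RAW 264.7 macrophages infected with S. Typhimurium sifB::gfp (MOI 30); compound added 2 h post-infection; cells fixed at 18 h; GFP-positive pixel fraction per macrophage imaged by confocal microscopy and expressed as % of DMSO control.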
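Further: compounds tested were the hits of an earlier 50 µM broth growth screen of a drug-like diversity library run with polymyxin B.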

Row | Compound | intramacrophage bacterial GFP load
1 | Cc1cccc(C(=O)N2CCCC(C(=O)c3ccc(-c4ccccc4)cc3)C2)n1 (stereo not drawn) | inactive: 26.6
2 | Cn1nccc1C(=O)NCC1Cc2cc(-c3cccc(OC(F)(F)F)c3)ccc2O1 (stereo not drawn) | inactive: 202
3 | Cc1ccc(-n2cccn2)c([C@@H]2C[C@H]3CN(C4CCCC4)C(=O)[C@]34CCCN24)c1 | inactive: 60.7
4 | CN1CCCCCC1C(=O)N(Cc1ccncc1)Cc1cccc(OCCc2ccc(F)cc2)c1 (stereo not drawn) | active: 0.961
5 | COc1ccc2cc(C(C)NC3CCN(c4ccc(C(=O)NCc5cccnc5)cc4)CC3)ccc2c1 (stereo not drawn) | active: 0.717
6 | CN(CCc1cnn(C)c1)c1nncc(-c2ccc3ccccc3c2)n1 | inactive: 98.4
7 | COc1ccc2c(c1)SC(c1ccc(F)c(F)c1)CCN2CC1CC1 (stereo not drawn) | inactive: 63.2
8 | O=C(Nc1ccc(-c2cscn2)cc1)C1CCCN1Cc1ccccc1 (stereo not drawn) | inactive: 57
